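All cell lines were grown in 96-well plates and treated with compound for 48 hours. GI50: concentration for 50% inhibition of growth.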 The source made the active and inactive calls. Rule as the data show it: active = GI50 up to about 1.1 µM and inactive = higher.

These results are taken from ChEMBL document CHEMBL1201862, “PubChem BioAssay data set” (2004).

The subject of this assay is NCI-H322M. The assay can be described thus: NCI tumour cell line growth inhibition, 48 h.
As to `O=C1C(Cl)=C(Sc2nnc3c4ccccc4c4ccccc4c3n2)C(=O)c2ccccc21`, the GI50 was inactive: 15.7 µM. Consider `CC(=O)Oc1cc2oc(=O)cc(C)c2cc1OC(C)=O`, for which the GI50 is inactive: 34.1 µM. As to `O=C(Nc1cccc2nsnc12)c1cc2c(cc1Cl)Sc1nccn1S2(=O)=O`, the GI50 is inactive: 2.58 µM.

Turning to `CN(C)S(=O)(=O)n1ccnc1`, the GI50 was inactive: > 100 µM.

As for `Cc1nc(N)nc(S)c1CCCNc1ccccc1`, the GI50 is inactive: 83.8 µM. For the compound `N=C(N)N/N=C/c1c(-c2ccc(Cl)c([N+](=O)[O-])c2)nc2sc(Cl)cn12`, the GI50 is inactive: 3.39 µM.

With `Cc1ccc(S(=O)(=O)NNC(=O)c2sc(-c3nc(C)c(C(=O)NNS(=O)(=O)c4ccc(C)cc4)s3)nc2C)cc1`, the GI50 is inactive: > 100 µM. The value for `CCNc1nc2c(ncn2C2CC(O)C(COP(=O)(O)O)O2)c(=O)[nH]1` (stereo unspecified) was inactive: > 100 µM; that for `CN1C(=O)N(C)C2(CCN(CC(CC3OCCO3)c3ccc(F)cc3)CC2)C1=O` (stereo unspecified) was inactive: > 100 µM; that for `C=C(C)C(=O)OC1C/C(CO)=C\C(O)C/C(C)=C/C2OC(=O)C(=C)C21` (stereo unspecified) was inactive: 24.2 µM. Take `Cc1c(C)c2c(c(N)c1C#N)C(=O)N(CCc1ccccc1)C2=O`: the GI50 was inactive: > 100 µM.

As to `C/N=c1\ss/c(=N\C(=S)N(C)C)n1C1CCCCC1`, the GI50 is inactive: > 31.6 µM.

As for `CC12CCCCC1C(=O)C2(Cl)Cl` (stereo unspecified), the GI50 is inactive: 3.79 µM. The value for `NC1=NN(c2ccccc2)C(=O)C1C(=O)C(=O)Nc1ccc(Cl)cc1` (stereo unspecified) was inactive: > 100 µM. With `N#CC(c1cc(Cl)ncn1)c1nc2ccccc2s1` (stereo unspecified), the GI50 is inactive: 11 µM. In the case of `COc1ccccc1-n1nnc2c(N)nc(N)nc21`, the GI50 is inactive: > 100 µM. For `C/C(=N/O)c1cccc(Nc2nc3ccccc3c3[nH]c4ccccc4c23)c1`, the GI50 is inactive: 1.72 µM. Consider `COC12OC3(C4OC41)C(C(=O)O[C@H]3CO[Si](C)(C)C(C)(C)C)C2C(=O)Oc1ccccc1` (stereo partly specified), for which the GI50 is inactive: > 100 µM.

Consider `S=C1NC(c2ccccc2)NC(c2ccccc2)S1` (stereo unspecified), for which the GI50 was inactive: > 100 µM. As to `CCCCCCCCNC(=O)C1=C(C)NC(C)=C(C(=O)NCCCCCCCC)C1`, the GI50 is inactive: > 100 µM. `CCN(CC)CCn1c(C(C)(C)C)nc2ccccc21`: the GI50 is inactive: > 100 µM. As to `O=C(/C=C/c1ccccc1)CC1OC(=O)c2ccccc21` (stereo unspecified), the GI50 is inactive: > 100 µM. `COc1nc(N=P(c2ccccc2)(c2ccccc2)c2ccccc2)cc(=O)n1C`: the GI50 is inactive: > 100 µM. With `CC(CO)(CO)N1C(=O)C2C3C=CC(C3)C2C1=O` (stereo unspecified), the GI50 was inactive: > 100 µM.

Consider `c1ccc(COc2nc3cc(C45CC6CC(CC(C6)C4)C5)ccc3[nH]2)cc1`, for which the GI50 was inactive: 25.6 µM. On to `CCC1(CCSC(=N)N)C(=O)NC(=O)NC1=O`, for which the GI50 is inactive: > 100 µM. As to `O=C1C(Cl)C(c2cc3cc(Br)ccc3nc2Cl)N1c1c(Cl)cccc1Cl` (stereo unspecified), the GI50 is inactive: > 25 µM. With `CC(=O)N1CN2C(=O)CCC2c2ccccc21` (stereo unspecified), the GI50 was inactive: > 100 µM. Take `O=C1/C(=N\O)S(=O)(=O)c2ccccc21`: the GI50 was inactive: > 100 µM. The value for `O=c1[nH]c2cc([N+](=O)[O-])ccc2nc1/C(=N\NO)C(O)c1ccc([N+](=O)[O-])cc1` (stereo unspecified) was inactive: 97.9 µM; that for `Cc1[nH]c2ccccc2c1C1Cc2ccccc2N1C(=O)C#Cc1ccc([N+](=O)[O-])cc1` (stereo unspecified) was inactive: > 100 µM; that for `COc1ccc(-c2c(-c3ccccc3)c(C)c3ccccn23)cc1` was inactive: > 100 µM. Take `O=C(O)CN(CC(=O)O)C1CCCCC1N1CC(=O)OC(=O)C1` (stereo unspecified): the GI50 is inactive: > 100 µM. For `CCn1c(=O)nc2n(-c3ccccc3)c3ccccc3nc-2c1=O`, the GI50 was inactive: 25.4 µM. With `CC1C2CC(C(S(=O)(=O)N3CCOCC3)/C2=N\O)C1(C)C` (stereo unspecified), the GI50 is inactive: > 100 µM. The value for `CC(C)NC(=O)OCc1c(COC(=O)NC(C)C)c(-c2ccc[n+](COC(=O)C3CCCCC3)c2)n2c1CCC2` was inactive: 76.2 µM; that for `O=C(Cn1c(=O)oc2ccc(C(=O)c3ccc(F)cc3)cc21)c1ccccc1` was inactive: > 100 µM. As to `CC(=O)Oc1ccccc1C(=O)C1c2cccc(O)c2C(=O)c2c(O)cccc21`, the GI50 was active: 0.982 µM.

Turning to `COC(=O)CC1(O)C(C=C(C)C)C(C(=O)OC)C(=O)C(C(=O)OC)C1C(=O)OC` (stereo unspecified), the GI50 was inactive: > 100 µM.

As for `N#C/C(=C1\SC(C(N)=O)=C(N)N1c1ccccc1)c1nc2ccccc2[nH]1`, the GI50 is inactive: > 100 µM. Turning to `CC1=C(C(=O)OCCc2ccc([N+](=O)[O-])cc2)C(c2cccc([N+](=O)[O-])c2)C(C(=O)OC(C)C)=C(C)N1` (stereo unspecified), the GI50 was inactive: > 100 µM. On to `CC(=O)OCCOCNC(=S)N/N=C(\C)c1cnc2ccccc2n1`, for which the GI50 was inactive: 25.1 µM. Under `CC(C)(C)c1cc(C(=O)/C=C/c2ccc3c(c2)OCO3)cc(C(C)(C)C)c1O` stands inactive: 12.3 µM; under `COc1cccc(Nc2nc(N)nc(N)c2N)c1`, inactive: > 100 µM. The value for `Cc1c([N+](=O)[O-])ccc2c(NCCCN(C)C)ccnc12` was inactive: 32 µM; that for `O=C1C[C@@H](c2ccccc2)O[C@@H](c2ccccc2)C1` was inactive: > 100 µM. The value for `CN1CC[C@@]2(c3cccc(O)c3)CC(=O)/C(=C/c3ccccc3)[C@H]1C2.[O-][Cl+3]([O-])([O-])O` was inactive: 14.5 µM; that for `COc1ccc(/N=C2\C(=S)N(c3ccc(OC)cc3)/C(=N/S(=O)(=O)c3ccccc3)N2c2ccccc2)cc1` was inactive: > 56.9 µM; that for `COC(=O)NNc1c([N+](=O)[O-])cnn(-c2ccccc2)c1=O` was inactive: 5.87 µM. For the compound `Cc1cc(NS(=O)(=O)c2ccc(NC(=O)c3cccc4c(Nc5ccc(S(N)(=O)=O)cc5)c5ccccc5nc34)cc2)no1`, the GI50 is inactive: > 100 µM. Consider `C=C1CC=CC(C)(C)C1C/C=C(\C)C(O)CBr` (stereo unspecified), for which the GI50 was inactive: > 100 µM. Under `O=C(c1c(F)c(F)c(F)c(F)c1F)n1c(O)nc2ccccc21` stands inactive: 15.3 µM. Under `Cc1c(F)c(N)c2c(=O)cc(-c3ccc(NC(=O)CN(C)C)c(F)c3)oc2c1F` stands inactive: > 100 µM. Under `O=C(O)CN1CCN(CC(=O)O)CCN(CC(=O)O)CC1` stands inactive: > 100 µM; under `CC1CCC2(NC1)OC1CC3C4CC=C5CC(OC6OC(CO)C(OC7OC(C)C(O)C(O)C7O)C(O)C6OC6OC(C)C(O)C(O)C6O)CCC5(C)C4CCC3(C)C1C2C` (stereo unspecified), inactive: 2.31 µM.

Regarding `COc1ccc(C2CC(=O)CC(c3ccc(OC)cc3)C23C(=O)NC(=S)NC3=O)cc1` (stereo unspecified), the GI50 was inactive: > 100 µM. With `O=C(O)Cc1cccc2c1OC(c1ccccc1)C(Cl)(C(=O)c1ccccc1)C2=O` (stereo unspecified), the GI50 was inactive: 21.3 µM. The value for `CC1=CC(C)C(C)N(CCNC(=O)Nc2ccccc2)c2ccccc21` (stereo unspecified) was inactive: 18.8 µM; that for `O=C1C=C(Br)c2c(Br)sc(Br)c21` was inactive: 20.7 µM. `COc1ccc(C2=Nc3c(nc(OC)[nH]c3=O)NC(c3ccccc3)C2)cc1` (stereo unspecified): the GI50 is inactive: 49 µM. Take `C=CCC1OC(C)(C)Oc2ccc(OCOCCOC)cc21` (stereo unspecified): the GI50 was inactive: > 100 µM. On to `CCCCCc1cc2cc3c(c(O)c2c(=O)[nH]1)C1(CCC3)C(=O)c2c(O)c3c(c(O)c2C1=O)C(=O)C(OC)=CC3=O` (stereo unspecified), for which the GI50 is inactive: 2.64 µM. Under `O=c1[nH]cnc2c1ncn2[C@H]1CO[C@@H](CO)[C@@H]1O` stands inactive: > 100 µM; under `CCN(CC)Cc1cc(Nc2c3ccccc3nc3c2[nH]c2ccccc23)ccc1O`, inactive: 1.49 µM; under `CC(=O)O[C@H]1C(=O)[C@@]2(C)[C@H]([C@H](OC(=O)c3ccccc3)[C@]3(O)C[C@H](OC(=O)[C@H](O)[C@@H](NC(=O)c4ccc(N(C)C)cc4)c4ccccc4)C(C)=C1C3(C)C)[C@]1(OC(C)=O)CO[C@@H]1C[C@@H]2O`, active: < 0.005 µM. Take `Nc1cc2c(nc3c4ccccc4c(N)cc3[n+]2-c2cccc3ccccc23)c2ccccc12.Nc1cc2c(nc3c4ccccc4ccc3[n+]2-c2cccc3ccccc23)c2ccccc12`: the GI50 was inactive: 5.78 µM. Under `COC(=O)c1ccccc1NC(=O)C(=O)CC(=O)CC(c1ccccc1)c1c(O)c2ccccc2oc1=O` (stereo unspecified) stands inactive: > 100 µM. On to `O=c1[nH]c2ccc(C(F)(F)F)cc2nc1-c1ccccc1`, for which the GI50 is inactive: > 100 µM. For the compound `Cc1c(N(C)C)ccc2c(=O)c3cccc(CC(=O)O)c3oc12`, the GI50 is inactive: > 100 µM. `O=S(O)CCCCCSSc1ccccc1`: the GI50 is inactive: > 100 µM. As to `O=C1c2cc3c(cc2[C@@H]2NC4CCCC14O2)OCO3` (stereo partly specified), the GI50 was inactive: > 100 µM. With `COc1cc(C2c3cc4c(cc3[C@@H](NC3CCN(Cc5ccccc5)CC3)C3COC(=O)[C@H]23)OCO4)cc(OC)c1O` (stereo partly specified), the GI50 was inactive: 2.14 µM. Under `O=C1/C(=C/c2ccc(Cl)cc2)CCCc2ccccc21` stands inactive: 23.3 µM; under `CC(=O)Oc1ccc(/C=C/C(=O)O[C@@H](C)[C@H](C)OC(=O)/C=C/c2ccc(OC(C)=O)c(OC(C)=O)c2)cc1OC(C)=O`, inactive: 18 µM. Take `Nc1nccc2c1ncn2[C@H]1C[C@H](O)[C@@H](CO)O1`: the GI50 was inactive: > 100 µM. On to `O=C(c1ccc(O)cc1O)C1C(c2ccc(O)cc2)OC(c2ccc(O)cc2)C1C(=O)c1ccc(O)cc1O` (stereo unspecified), for which the GI50 was inactive: 10.8 µM.

For the compound `O=C(NCCCl)SCCO`, the GI50 was inactive: > 100 µM. Under `O=c1[nH]c(Nc2cccc(C(F)(F)F)c2)nc2[nH]cnc12` stands inactive: 63.2 µM; under `Cn1c(=O)nc2n(-c3ccc(F)c(F)c3)c3ccccc3nc-2c1=O`, inactive: 19.1 µM. With `COc1ccc(/C=C/c2cc(OC)c(OCc3ccccc3)c(OC)c2)cc1`, the GI50 is inactive: > 100 µM.

Take `NC(=O)CC[C@H]1C(=O)N=C(N)N1C(=O)OCc1ccccc1`: the GI50 was inactive: > 100 µM.
